According to PubChem BioAssay AID504332 (National Center for Advancing Translational Sciences (NCATS), 2011):
The campaign covered roughly 350,000 compounds. About 31,000 (8.9%) were called active. Inconclusive results, whose numbers are uncertain, are shown with a selection of clear calls. Calls follow the shape of the dose curve; as a rule, active = well fitted inhibition curve with a large enough effect; inconclusive = small, poorly fitted or top-dose-only effect; inactive = no such curve, though single readings can be large or run the other way. Potencies of inconclusive entries are doubtful fits and often do not repeat.

Each compound was assayed against Histone-lysine N-methyltransferase EHMT2 (Homo sapiens) (UniProt Q96KQ7) (assay: qHTS Assay for Inhibitors of Histone Lysine Methyltransferase G9a). Conditions: G9a H3K9 monomethylation, AlphaScreen, 2 h.
Outline: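 Compounds were preincubated with 20 nM G9a for 15 min, after which biotinylated H3K9 peptide (500 nM) and SAM (20 uM) started a 2 h room-temperature reaction. Monomethylated product was quantified by antibody-based AlphaScreen chemiluminescence.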
Also: nearly all actives have a fitted effect of over 75% in size.
Potency is read from the fitted curve at half-maximal effect; tags tell the direction and shape of the fitted curve.

Sequence of UniProt Q96KQ7 (Q96KQ7 whole entry, looked up): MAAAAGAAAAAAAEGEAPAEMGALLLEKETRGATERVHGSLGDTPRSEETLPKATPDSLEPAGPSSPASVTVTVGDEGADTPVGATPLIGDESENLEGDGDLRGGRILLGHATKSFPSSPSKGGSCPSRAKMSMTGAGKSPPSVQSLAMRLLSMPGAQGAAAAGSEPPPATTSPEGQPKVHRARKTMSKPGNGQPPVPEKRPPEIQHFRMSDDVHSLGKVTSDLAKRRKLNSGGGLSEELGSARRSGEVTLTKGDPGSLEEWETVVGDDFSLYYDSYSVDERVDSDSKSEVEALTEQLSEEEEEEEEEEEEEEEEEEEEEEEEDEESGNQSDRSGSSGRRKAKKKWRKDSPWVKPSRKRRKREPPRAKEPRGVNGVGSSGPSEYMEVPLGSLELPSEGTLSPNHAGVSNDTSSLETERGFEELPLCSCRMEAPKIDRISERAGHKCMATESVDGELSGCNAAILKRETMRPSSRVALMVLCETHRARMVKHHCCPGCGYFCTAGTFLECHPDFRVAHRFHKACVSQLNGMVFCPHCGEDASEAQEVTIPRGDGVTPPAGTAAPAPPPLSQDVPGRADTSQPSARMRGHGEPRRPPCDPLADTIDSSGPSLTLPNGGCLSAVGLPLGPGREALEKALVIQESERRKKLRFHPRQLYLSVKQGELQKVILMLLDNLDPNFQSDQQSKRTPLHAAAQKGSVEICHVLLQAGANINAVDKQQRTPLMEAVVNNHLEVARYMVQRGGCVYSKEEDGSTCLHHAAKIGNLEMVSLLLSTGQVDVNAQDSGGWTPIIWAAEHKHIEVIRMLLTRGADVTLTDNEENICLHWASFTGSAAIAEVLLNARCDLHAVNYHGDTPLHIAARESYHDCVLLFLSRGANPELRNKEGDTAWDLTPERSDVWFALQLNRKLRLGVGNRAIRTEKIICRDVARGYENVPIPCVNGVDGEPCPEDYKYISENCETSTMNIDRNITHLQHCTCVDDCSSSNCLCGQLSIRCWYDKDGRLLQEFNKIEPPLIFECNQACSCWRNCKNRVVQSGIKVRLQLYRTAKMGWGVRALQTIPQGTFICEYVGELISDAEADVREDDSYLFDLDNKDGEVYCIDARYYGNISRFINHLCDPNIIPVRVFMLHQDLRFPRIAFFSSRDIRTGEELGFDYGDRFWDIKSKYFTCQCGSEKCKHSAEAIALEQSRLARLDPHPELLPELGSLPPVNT

Row | Compound | Potency
1 | Cc1ccccc1CS(=O)(=O)Cc1ccc(C(=O)NCCc2ccc(Cl)cc2)o1 | inactive
2 | CCOC(=O)C1CCCN(c2c(C(=O)c3ccccc3)cnc3ccc(F)cc23)C1 (configuration not stated) | inconclusive: 22.4 µM [inhibitor, partial curve, poor fit]
3 | Cc1cn2c(=O)cc(COC(=O)c3ccc(NC(=O)c4ccccc4C)cc3)nc2s1 | inactive
4 | COc1ccccc1-n1cnnc1SCC(=O)c1cc(C)n(Cc2cccs2)c1C | active: 44.7 µM
5 | COc1cc(CN2CCN(Cc3ccc(C)cc3)CC2)c([N+](=O)[O-])cc1OC | active: 4.47 µM
6 | COCCNC(=O)c1cc(-c2ccc(-c3ccccc3)cc2)nc2ccccc12 | inactive
7 | CCOC(=O)/C=C/COc1ccccc1[N+](=O)[O-] | inactive
8 | Cc1ccccc1C(=O)Nc1sc2c(c1C(=O)N1CCC(C)CC1)CCC(C)C2 (configuration not stated) | inconclusive: 3.98 µM [inhibitor, single point]
9 | COC(=O)c1c(C(C)=O)cnc2ccc(Br)cc12 | inconclusive: 89.1 µM [inhibitor, single point]
10 | CC(NC(=O)CCn1nc(-c2ccc(Cl)cc2)ccc1=O)c1ccccc1 (configuration not stated) | inactive
11 | CC(C)CCn1c(=O)c2c(nc3n2CCCN3Cc2ccccc2)n(C)c1=O | inconclusive: 79.4 µM [inhibitor, single point]
12 | CCOc1ccc(-n2c(SCc3nc(-c4ccc(C)cc4)no3)nnc2-c2ccncc2)cc1 | active: 79.4 µM
13 | CCC(=O)Nc1cc(C)c(NC(=O)C23CC4CC(CC(C4)C2)C3)cn1 | active: 1.12 µM
14 | OCCOCCOCCO | inactive
15 | Cc1ccc(Cn2c(=O)c3cccnc3n(Cc3ccc(C)cc3)c2=O)cc1 | inactive
16 | NC(=O)c1cc(S(=O)(=O)NCc2cccs2)cs1 | inactive
17 | CCCOc1ccc(NC(=O)Cc2ccc(S(=O)(=O)N3CCOCC3)s2)cc1OCCC | active: 79.4 µM
18 | CNC[C@H](CC1CCCCC1)NC[C@H](CO)NCCc1cccc(C(F)(F)F)c1 | inconclusive: 89.1 µM [inhibitor, single point]
19 | CCCCN(C(=O)C1=NN(c2ccccc2)C(=O)CC1)c1c(N)n(CC(C)C)c(=O)[nH]c1=O | inconclusive: 28.2 µM [inhibitor, single point]
20 | O=C(Nc1cccc([N+](=O)[O-])c1)c1cc2ccccc2cc1O | inconclusive: 50.1 µM [inhibitor, partial curve]
21 | CC1CN(S(=O)(=O)c2ccc(C(=O)OCc3ccc(C#N)cc3)cc2)CC(C)O1 (configuration not stated) | inactive
22 | CCOC(=O)N1CCC(NC(=O)c2cnn(-c3ccc(OC)cc3)c2C2CCN(C(=O)OC(C)(C)C)CC2)CC1 | inactive
